Experimental data reported in PMC13083723 (Patterns, 2026).
Screen size: about 5,400 compounds; about 190 (3.5%) showed an effect of 50% or more. Some of the results follow. Non-standard residues stand in square brackets, D forms with d. Residues, ends and D or L forms follow the SMILES beside them. NMeF = CN[C@@H](Cc1ccccc1)C(=O)O

Tested on: Vero-E6
Assay: primary screen, phospholipidosis by LipidTOX staining; higher = more effect of the substance
Settings: 10 µM
Method in brief: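 Single-concentration screen at 10 μM, with DMSO 0.1 v/v % and amiodarone 10 μM as controls. Read-out is LipidTOX Red phospholipid staining, which tolerates aldehyde fixation, in Vero-E6 cells.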

Row | SMILES | result_ITMP [%]
1 | COc1cc2nc(C3CC3)nc(N3CCN(c4ccccc4OC)CC3)c2cc1OC | -0.15
2 | CNC(=O)c1ccccc1Nc1cc(Nc2ccc(N3CCOCC3)cc2OC)ncc1C(F)(F)F | 10.6
3 | Cc1c(N2C(=O)[C@@H]3[C@H](O)CCN3C2=O)ccc(C#N)c1Cl | -1.38
4 | O=C1NC(O)CCN1[C@@H]1O[C@H](CO)[C@@H](O)[C@H]1O (some centres unmarked) | -8.11
5 | OCc1ccccc1O[C@@H]1O[C@H](CO)[C@@H](O)[C@H](O)[C@H]1O | -0.4
6 | O=C(O)[C@H]1CN(C/C=C/P(=O)(O)O)CCN1 | -1.39
7 | COc1ccc(NS(=O)(=O)c2ccc(I)cc2)cc1N1CCN(C)CC1 | 16.4
8 | O=C1CCCC2C3CC(CN12)[C@@H]1CCCCN1C3 (some centres unmarked) | -11.1
9 | CSCC[C@H](NC(=O)[C@H](CC(C)C)NC(=O)[C@@H](Cc1c[nH]c2ccccc12)NC(=O)[C@H](Cc1ccccc1)N(C)C(=O)[C@@H](Cc1c[nH]c2ccccc12)NC(=O)[C@@H](N)CCCN=C(N)N)C(N)=O (H-R[dW][NMeF][dW]LM-NH2) | -1.85
10 | C=CC1=C(C(=O)O)N2C(=O)[C@@H](NC(=O)/C(=N\O)c3csc(N)n3)[C@H]2SC1 | -6.59
11 | CN1C(CCl)Nc2cc(Cl)c(S(N)(=O)=O)cc2S1(=O)=O (centres unmarked) | -4.62
12 | Cc1cn([C@H]2C=C[C@@H](CO)O2)c(=O)[nH]c1=O | -4.41
13 | CC(=O)NS(=O)(=O)c1ccc(N)cc1 | -2.63
14 | CCOC(=O)c1ccc(-n2cc(Cc3cnc(OCC)nc3)c(=O)nc2SCc2ccc(F)cc2)cc1 | -1.15
15 | O=P([O-])(O)C(Cl)(Cl)P(=O)([O-])O | -2.27
16 | C=C1CC[C@@H]2[C@](C)(CO)[C@H](O)CC[C@@]2(C)[C@@H]1C/C=C1/C(=O)OC[C@H]1O | 7.42
17 | CC(=O)c1cc2c(o1)C(=O)c1ccccc1C2=O | -0.05
18 | C=C1C(=O)O[C@@H]2[C@H]3C(C)=CC[C@@]34O[C@@]4(C)CC[C@@H]12 | 2.15
19 | CCN(CC)CC(=O)Nc1c(C)cccc1C | -4.06
20 | CC(C)(O)c1coc(S(=O)(=O)NC(=O)Nc2c3c(cc4c2CCC4)CCC3)c1 | -0.5
21 | CO[C@H]1/C=C/O[C@@]2(C)Oc3c(C)c(O)c4c(O)c(cc([O-])c4c3C2=O)NC(=O)/C(C)=C\C=C\C(C)[C@H](O)[C@@H](C)[C@@H](O)[C@@H](C)[C@H](OC(C)=O)[C@@H]1C (some centres unmarked) | -1.11
22 | O=C(N[C@H]1CN2CCC1CC2)c1cnc2ccsc2c1O | -2.55

Row | SMILES | result_ITMP [%]
23 | c1ccc2c(CC3=NCCN3)cccc2c1 | 0.03
24 | CC(=O)OCC(=O)[C@@]12OC(C)(C)O[C@@H]1C[C@H]1[C@@H]3C[C@H](F)C4=CC(=O)C=C[C@]4(C)[C@@]3(F)[C@@H](O)C[C@@]12C | -0.63
25 | Nc1ncnc2c1ncn2[C@H]1O[C@@H](C(=O)N2CCN(CC(=O)Nc3cccc4c3CNC4=O)CC2)[C@H](O)[C@@H]1O | -2
26 | CC1(C)C(/C=C/C=C/C=C/C=C2/N(CCCCS(=O)(=O)[O-])c3ccc4ccccc4c3C2(C)C)=[N+](CCCCS(=O)(=O)[O-])c2ccc3ccccc3c21 | -0.75
27 | CC(C)C(=O)SCCCCC[C@H](NC(=O)OC(C)(C)C)C(=O)NC12CC3CC(CC(C3)C1)C2 | 6.93
28 | CCOc1ccc(-n2c([C@@H](C)N(Cc3cccnc3)C(=O)Cc3ccc(OC(F)(F)F)cc3)nc3ncccc3c2=O)cc1 | 0.18
29 | NC(=O)NCCC[C@H](N)C(=O)O | -2.47
30 | O=c1oc2c(O)c(O)cc3c(=O)oc4c(O)c(O)cc1c4c23 | 4.42
31 | COc1ccc(/C=C/C(=O)/C=C(O)/C=C/c2ccc(OC)c(OC)c2)cc1OC | -0.99
32 | CN(c1ccccc1CNc1nc(Nc2ccc3c(c2)CC(=O)N3)ncc1C(F)(F)F)S(C)(=O)=O | 15.3
33 | CCN(CC)C(=O)N[C@H]1C=C2c3cccc4[nH]cc(c34)C[C@H]2N(C)C1 | 26.1
34 | O=C1NS(=O)(=O)c2ccccc21 | -3.49
35 | NS(=O)(=O)c1cc2c(cc1Cl)NC(C1CC3C=CC1C3)NS2(=O)=O (centres unmarked) | -2.34
36 | CC(C)COc1ccc(CNC(=O)N(Cc2ccc(F)cc2)C2CCN(C)CC2)cc1 | 48.6
37 | CC(=O)CC(c1ccccc1)c1c(O)c2ccccc2oc1=O (centres unmarked) | -1.2
38 | c1coc(CNc2ncnc3nc[nH]c23)c1 | -4.92
39 | Nc1nc(S)c2nc[nH]c2n1 | 26.6
40 | C[C@H]1Oc2cc(cnc2N)-c2c(nn(C)c2C#N)CN(C)C(=O)c2ccc(F)cc21 [R4A_0001637_001 / SPE_K99879819] | -2.56
41 | CC(CNS(=O)(=O)C(C)C)c1ccc(-c2ccc(C#N)cc2)cc1 (centres unmarked) | 2.07
42 | O=C(c1ccc(Cl)o1)N1CC2CNCC2C1 (centres unmarked) | 0.39
43 | O=C(Nc1ccncc1)C(=O)c1cn(Cc2ccc(Cl)cc2)c2ccccc12 | 0.55
44 | CCCCCCCCCCCC(=O)OCC(O)CO (centres unmarked) | -0.78

Row | SMILES | result_ITMP [%]
45 | Nc1nc(N)c2nc(CNc3ccc(C(=O)N[C@@H](CCC(=O)O)C(=O)O)cc3)cnc2n1 | -13
46 | N[C@@H](CSCC(=O)O)C(=O)O | -3.83
47 | O=C(O)Cc1ccc(OCCNC[C@H](O)c2ccccc2)cc1 | -2.13
48 | OCCc1ccc(OCCn2ccnc2)cc1 | 17.7
49 | CC(C)C[C@@H](C(=O)N[C@@H](Cc1ccc(OCc2ccccc2)cc1)C(=O)NC(C)(C)C)N(C)Cc1ccc(C(C)(C)C)cc1 | -1.65
50 | CCCCN(Cc1ccc(C(=O)NO)cc1)C(=O)Nc1ccccc1 | -9.88
51 | COC(=O)N[C@H](C(=O)N1CCC[C@H]1c1ncc(-c2ccc(-c3ccc(-c4cnc([C@@H]5CCCN5C(=O)[C@@H](NC(=O)OC)C(C)C)[nH]4)cc3)cc2)[nH]1)C(C)C | 1.1
52 | CCCCCN(C)CCC(O)(P(=O)([O-])O)P(=O)(O)O | 3.23
53 | CC(C)(S)C(=O)N[C@@H](CS)C(=O)O | -4.67
54 | CC1=C(C(=O)Nc2cc3cn[nH]c3cc2F)C(c2ccc(C(F)(F)F)cc2)CC(=O)N1 (centres unmarked) | 4.82
55 | CNC(=O)c1ccccc1Nc1nc(Nc2ccc(N3CCOCC3)cc2OC)ncc1Cl | 3.78
56 | NCC(CC(=O)O)c1ccccc1 (centres unmarked) | 3.25
57 | O=C(O)CCCNC(=O)c1cccnc1 | -2.5
58 | NCC(O)(CS(=O)(=O)O)c1ccc(Cl)cc1 (centres unmarked) | -4.58
59 | COc1cc(/C=C/c2ccc(O)cc2)cc(OC)c1 | 11.9
60 | CC[C@H](NC(=O)c1c(C)c(-c2ccccc2)nc2ccccc12)c1ccccc1 | -1.6
61 | CCOC(=O)c1ncn2c1CN(C)C(=O)c1cc(F)ccc1-2 | 4.71
62 | O=C(COc1ccc(Cl)cc1)N[C@H]1CC[C@H](NC(=O)COc2ccc(Cl)cc2)CC1 | -2.2
63 | Cc1cc(C)c2c(c1)[C@@H](N(Cc1cc(C(F)(F)F)cc(C(F)(F)F)c1)c1nnn(C)n1)CCCN2C[C@H]1CC[C@H](C(=O)O)CC1 | -10.9
64 | Cn1c(C#N)ccc1-c1ccc2c(c1)C(C)(C)OC(=S)N2 | -1.41
65 | c1cc2c(cc1[C@H]1OC[C@H]3[C@@H]1CO[C@@H]3c1ccc3c(c1)OCO3)OCO2 | -6.11
66 | CCOc1ccc(Cc2cc([C@]34OC[C@](CO)(O3)[C@@H](O)[C@H](O)[C@H]4O)ccc2Cl)cc1 | -0.06

Row | SMILES | result_ITMP [%]
67 | COc1cc(C(C)=O)ccc1OCCCN1CCC(c2noc3cc(F)ccc23)CC1 | -0.01
68 | CCCC1O[C@@H]2C[C@H]3[C@@H]4CCC5=CC(=O)C=C[C@]5(C)[C@H]4[C@@H](O)C[C@]3(C)[C@]2(C(=O)CO)O1 (some centres unmarked) | -5.56
69 | CNC(=O)[C@@H](c1ccccc1)N1CCc2cc(OC)c(OC)cc2[C@@H]1CCc1ccc(C(F)(F)F)cc1 | 1.25
70 | N=C(N)NC(=O)c1cnccn1 | -1.44
71 | CC(=O)NC(Cc1ccc(O)cc1)C(=O)O (centres unmarked) | -5.32
72 | COc1ccc(/C=C\c2cc(OC)c(OC)c(OC)c2)cc1O | 8.42
73 | CN1c2c(oc(=O)n(-c3ccccn3)c2=O)-c2ccccc2S1(=O)=O | -0.47
74 | Cc1cccn2c(=O)c(/C=C(\C#N)c3nc4ccccc4s3)c(Oc3ccc(F)cc3)nc12 | -3.48
75 | COc1ccc(-c2sc(NC(=O)C(C)(C)C)nc2C)cc1S(=O)(=O)Nc1ccc(O)cc1 | 9.51
76 | c1cc(-c2cnn3cc(-c4ccc(N5CCNCC5)cc4)cnc23)c2cccnc2c1 | -14.8
77 | COc1cccc(-c2ccc([C@@H](Oc3cc(-c4ccc(C[C@H](N)C(=O)O)cc4)nc(N)n3)C(F)(F)F)cc2)c1 | -3.18
78 | c1ccc(CCCCN2CCC(c3ccccc3)CC2)cc1 | 0.01
79 | COC(=O)c1c(C)[nH]c(C)c1C(=O)c1ccccc1Cc1ccccc1 | 0.65
80 | CC(C)n1nnc2cc(C(=O)O)ccc21 | -1.84
81 | O=C(O)Cn1c2c(c3cc(F)ccc31)CN(C(=O)c1cccc3ccccc13)CC2 | -2.57
82 | CC(C)(CCCCCC(O)CCCCCC(C)(C)C(=O)O)C(=O)O | -2.73
83 | C=C(C)[C@H]1CN[C@H](C(=O)O)[C@H]1CC(=O)O | -8
84 | O=C(O)C[CH2][Ge](=[O])[O][Ge](=[O])[CH2]CC(=O)O | -3.6
85 | COc1ccc(S(=O)(=O)Nc2c(C)cc(C)cc2C)cc1 | -4.15
86 | Oc1ccc(-c2c(-c3ccccc3)nn3c(C(F)(F)F)cc(C(F)(F)F)nc23)cc1 | -1.36
